Screen size: about 48,000 compounds; about 550 (1.1%) were called active. Inconclusive results (about 4%) are left out. No stated cut-off is given here; in the data, active means potency below about 15 µM; inconclusive means mostly about 16 µM to 33 µM; inactive means weaker than that. This is one part of the list.
molecular target: Lysosomal acid glucosylceramidase (Homo sapiens) (UniProt P04062); test: Glucocerebrosidase; conditions: purified enzyme, resorufin glucoside fluorescence (screen aimed at inhibitors), 20 min;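 further: the screen sought inhibitors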
Sequence of UniProt P04062 (P04062 whole entry, looked up): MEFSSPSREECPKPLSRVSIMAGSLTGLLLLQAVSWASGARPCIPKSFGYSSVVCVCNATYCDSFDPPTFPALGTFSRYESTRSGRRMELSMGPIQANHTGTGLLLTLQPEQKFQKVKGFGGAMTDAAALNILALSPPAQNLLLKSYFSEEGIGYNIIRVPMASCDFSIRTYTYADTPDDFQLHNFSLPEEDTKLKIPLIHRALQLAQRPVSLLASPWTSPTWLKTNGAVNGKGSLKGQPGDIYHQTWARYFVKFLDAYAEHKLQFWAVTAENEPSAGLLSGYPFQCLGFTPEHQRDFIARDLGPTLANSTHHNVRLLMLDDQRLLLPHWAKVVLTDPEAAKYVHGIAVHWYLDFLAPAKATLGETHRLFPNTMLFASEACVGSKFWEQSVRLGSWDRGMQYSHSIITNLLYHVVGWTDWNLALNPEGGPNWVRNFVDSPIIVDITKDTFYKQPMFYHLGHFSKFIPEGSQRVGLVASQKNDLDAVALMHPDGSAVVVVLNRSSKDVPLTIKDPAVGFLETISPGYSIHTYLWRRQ
Outline: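 Normal human glucocerebrosidase (0.2 nM final) was assayed with resorufin β-D-glucopyranoside (30 uM final) in 50mM citric acid/KH2PO4, 10mM sodium taurocholate, 0.01% tween-20, pH 5.9. Compounds were titrated; fluorescence (Ex 548, Em 600) read after 20 min at RT.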
Potency means the concentration at half of the fitted maximal effect.

Potency, inactive:
COC(=O)C(C(=O)Nc1ccc(OC)cc1)C1CCCCCC1 (configuration not stated) > 76.9 µM
Cc1cc(N2CCCC(C(=O)Nc3ccc4c(c3)CCC4)C2)n2ncnc2n1 (configuration not stated) > 76.9 µM
O=C(O)[C@@H]1CCCC[C@@H]1C(=O)N1CCc2ccccc2C1CN1C(=O)c2ccccc2C1=O (some centres not stated) > 76.9 µM
CCOC(=O)C(C(C)=O)C(c1ccc(OC)cc1)C(C(C)=O)C(=O)OCC (configuration not stated) > 76.9 µM
CCOc1ccc(C(=O)CN2CCN(S(=O)(=O)c3ccc(F)cc3)CC2)cc1 > 76.9 µM
CCSc1nnc(Cc2cc(=O)[nH]c(=O)[nH]2)n1-c1cc(C)ccc1C > 76.9 µM
CN(C)CCN1C(=O)c2oc3ccccc3c(=O)c2C1c1ccccc1 (configuration not stated) > 76.9 µM
COc1ccc(-c2noc(CCC(=O)NC3CCCCC3)n2)cc1OC > 76.9 µM
CCCCC(=O)N=c1sc2cc(S(C)(=O)=O)ccc2n1C > 76.9 µM
Cc1ccc(C)c(C(=O)NCCN(C)C)c1 > 76.9 µM
O=C(NC1CCCCC1NC(=O)c1cccs1)c1cccs1 (configuration not stated) > 76.9 µM
Cc1sc2c(=O)n3c(nc2c1C(=O)NCCCN1CCOCC1)CCCCC3 > 76.9 µM
Cc1ccc(CNC(=O)CN2CCC(C(N)=O)CC2)cc1 > 76.9 µM
O=C(NCC(c1cccnc1)N1CCN(c2ccc(F)cc2)CC1)c1ccc2c(c1)OCO2 (configuration not stated) > 76.9 µM
CSCCC(NC(=O)CCN1C(=O)c2ccccc2C1=O)C(=O)O (configuration not stated) > 76.9 µM
CC(C)CCC(C(=O)O)C(C)CC(=O)NC1CCCCC1 (configuration not stated) > 76.9 µM
CCc1ccccc1OCc1nnc(N)s1 > 76.9 µM
Cc1ccc(S(=O)(=O)NC(CC(=O)N2CCOCC2)c2ccco2)cc1 (configuration not stated) > 76.9 µM
Cc1ccc(N2CCCn3c2nc2c3c(=O)n(CCN3CCOCC3)c(=O)n2C)cc1 > 76.9 µM
CCOC(=O)c1ccoc1CSCC(=O)N1CCN(S(=O)(=O)c2ccc(C)cc2)CC1 > 76.9 µM
Cc1cc2c(c(=O)n1Cc1cccnc1)C(Cc1ccccc1)C(C#N)=C(N)O2 (configuration not stated) > 76.9 µM
Cc1cc(=O)n2nc(N3CCCC3C(=O)NCCCN3CC(C)CC(C)C3)sc2n1 (configuration not stated) > 76.9 µM
CCOC(=O)COc1ccc(-c2nnc(-c3ccccc3)o2)cc1 > 76.9 µM
O=S(=O)(c1ccc(S(=O)(=O)N(Cc2cccs2)CC2CCCO2)cc1)N1CCCCC1 (configuration not stated) > 76.9 µM
COc1cccc(N(C(=O)CNC(=O)c2ccco2)C(C(=O)NC2CCCCC2)c2ccncc2)c1 (configuration not stated) > 76.9 µM
CCOc1cc(C#N)c(NC(=O)Cn2nnc3ccccc32)cc1OCC > 76.9 µM
O=C(NCc1ccc2c(c1)OCO2)c1cccc(N2CCCC2=O)c1 > 76.9 µM
Nc1nnc(-c2cc3ccccc3oc2=O)s1 > 76.9 µM
NC(=O)CSc1nnc(-c2ccc(O)cc2)n1Cc1ccco1 > 76.9 µM
O=C(CSc1nnc(CNC(=O)c2cccs2)o1)NC1CCCC1 > 76.9 µM
O=C(c1ccccc1)C1CCc2occc2C1=O (configuration not stated) > 76.9 µM
CC(C)(C)n1nnnc1C(c1ccc(C#N)cc1)N1CCCC2(CCCCC2)C1 (configuration not stated) > 76.9 µM
Cc1ccc2[nH]c3c(c2c1)CCc1cn[nH]c1-3 > 76.9 µM
COc1ccc(OCC2CNC(=O)O2)cc1 (configuration not stated) > 76.9 µM
COc1ccc(-c2nnc(-c3ccc(N(C)C)cc3)o2)cc1 > 76.9 µM
Cc1ccc(Cl)cc1N1CCN(C(=O)CCC(=O)O)CC1 > 76.9 µM
Cc1cccc(-n2c(CCCN3C(=O)c4ccccc4C3=O)nc3ccccc3c2=O)n1 > 76.9 µM
CC1COC(c2cccn2Cc2ccccc2Cl)=N1 (configuration not stated) > 76.9 µM
COc1ccc2c(CC(=O)N3CCN(S(=O)(=O)c4cccs4)CC3)coc2c1 > 76.9 µM
COc1cc(OC)cc(C(=O)NCCNC(=O)c2ccccc2)c1 > 76.9 µM
COc1ccc(NC(=O)CN(c2ccccc2)S(=O)(=O)N(C)C)cc1OC > 76.9 µM
CCOC(=O)N1CCN(C(=O)CS(=O)(=O)c2cn(Cc3cccc(F)c3)c3ccccc23)CC1 > 76.9 µM
COc1cccc2cc(C(=O)Nc3cccc(C)n3)c(=O)oc12 > 76.9 µM
COc1cccc(-c2nnc(SCc3cccnc3)o2)c1 > 76.9 µM
Cc1ccc(-n2c(SCC(=O)NCC3CCCO3)nc3c(c2=O)SCC3)cc1 (configuration not stated) > 76.9 µM
CCOc1ccccc1N(CC(=O)NCc1ccc(OC)cc1)S(C)(=O)=O > 76.9 µM
Cc1nc(C)c(C(=O)C2=C(O)C(=O)N(CCCn3ccnc3)C2c2ccccc2)s1 (configuration not stated) > 76.9 µM
c1ccc(OCCN2C3=NCCN3c3ccccc32)cc1
O=C(COc1ncnc2ccccc12)NCCC1=CCCCC1 > 76.9 µM
Cc1noc(C)c1CSc1nc2sc(C)c(C)c2c(=O)n1-c1ccccc1 > 76.9 µM
CCC(=O)Nc1cc2nn(-c3ccc(OC)cc3)nc2cc1C > 76.9 µM
O=C(C1CCCN(Cc2cccnc2)C1)N1CCCCC1 (configuration not stated) > 76.9 µM
COC(=O)c1c(C(=O)OC)c(C)n(Cc2ccco2)c1C > 76.9 µM
CC(C)n1c(CN2CCN(C)CC2)nc2c1c(=O)n(C)c(=O)n2C > 76.9 µM
COc1cccc(C(CC(=O)NCC2CCCO2)NS(=O)(=O)c2ccc(C)cc2)c1OC (configuration not stated) > 76.9 µM
CCOC(=O)N1CCC(NC(=O)CNS(=O)(=O)c2ccc(Br)s2)CC1 > 76.9 µM
CCOc1ccc(OCCSc2nc(C)cc(=O)[nH]2)cc1 > 76.9 µM

From PubChem BioAssay AID360 (National Center for Advancing Translational Sciences (NCATS), 2006)
